Measurements: the supplement of paper PMC9151546
Single values are uncertain, as repeats are few or missing.

Legend:
CHO-K1 [1] = assay: hypodiploid nuclei frequency (% of nucleated events); higher = more hypodiploid events (aneugenic)
CHO-K1 [2] = assay: micronucleus frequency (% of nucleated events); higher = more micronuclei (genotoxic)
CHO-K1 [3] = assay: relative survival (nuclei to bead ratio vs DMSO control) (% of vehicle control); higher = more surviving cells
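For hypodiploid nuclei frequency (% of nucleated events) in this document: hypodiploid nuclei gated on a flow cytometer with 488 nm excitation after SYTOX Green staining, cultures at 37 °C, positive controls vinblastine without S9 and cyclophosphamide with S9.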
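For micronucleus frequency (% of nucleated events) in this document: cells lysed with nuclei stained by SYTOX Green, then micronucleus-gated events counted against nucleated events by flow cytometry with 488 nm excitation.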
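For relative survival (nuclei to bead ratio vs DMSO control) in this document: Lysed-cell nuclei stained with SYTOX Green and counted against counting beads by flow cytometry at 488 nm excitation, with vinblastine (no S9) and cyclophosphamide (plus S9) as positive controls.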

Cc1occc(=O)c1O [Maltol]
Conditions | hypodiploid nuclei frequency, CHO-K1 [1] [%] | micronucleus frequency, CHO-K1 [2] [%] | relative survival, CHO-K1 [3]
concentration: 4.5 (µM), S9 metabolic activation: with S9, exposure time: 3-4 hours | 0.2 | 1.72 | 115
concentration: 4.5 (µM), S9 metabolic activation: without S9, exposure time: 24 hours | 0.44 | 1.74 | 88.6
concentration: 5.63 (µM), S9 metabolic activation: with S9, exposure time: 3-4 hours | 0.3 | 1.4 | 106
concentration: 5.63 (µM), S9 metabolic activation: without S9, exposure time: 24 hours | 0.74 | 1.84 | 98.8
concentration: 7.04 (µM), S9 metabolic activation: with S9, exposure time: 3-4 hours | 0.1 | 1.5 | 129
concentration: 7.04 (µM), S9 metabolic activation: without S9, exposure time: 24 hours | 0.8 | 1.64 | 97.3
concentration: 8.8 (µM), S9 metabolic activation: with S9, exposure time: 3-4 hours | 0.24 | 1.42 | 98.9
concentration: 8.8 (µM), S9 metabolic activation: without S9, exposure time: 24 hours | 0.74 | 2.1 | 96.3
concentration: 11 (µM), S9 metabolic activation: with S9, exposure time: 3-4 hours | 0.24 | 1.28 | 110
concentration: 11 (µM), S9 metabolic activation: without S9, exposure time: 24 hours | 0.62 | 1.9 | 98.3
concentration: 13.7 (µM), S9 metabolic activation: with S9, exposure time: 3-4 hours | 0.3 | 1.36 | 104
concentration: 13.7 (µM), S9 metabolic activation: without S9, exposure time: 24 hours | 0.86 | 2.3 | 110
concentration: 17.2 (µM), S9 metabolic activation: with S9, exposure time: 3-4 hours | 0.26 | 1.3 | 121
concentration: 17.2 (µM), S9 metabolic activation: without S9, exposure time: 24 hours | 0.96 | 2.44 | 100
concentration: 21.5 (µM), S9 metabolic activation: with S9, exposure time: 3-4 hours | 0.36 | 1.64 | 104
concentration: 21.5 (µM), S9 metabolic activation: without S9, exposure time: 24 hours | 0.72 | 1.72 | 105
concentration: 26.8 (µM), S9 metabolic activation: with S9, exposure time: 3-4 hours | 0.22 | 1.24 | 98.7
concentration: 26.8 (µM), S9 metabolic activation: without S9, exposure time: 24 hours | 0.88 | 1.52 | 88.6
concentration: 33.6 (µM), S9 metabolic activation: with S9, exposure time: 3-4 hours | 0.28 | 1.86 | 101
concentration: 33.6 (µM), S9 metabolic activation: without S9, exposure time: 24 hours | 0.92 | 1.72 | 86.6
concentration: 41.9 (µM), S9 metabolic activation: with S9, exposure time: 3-4 hours | 0.32 | 1.28 | 113
concentration: 41.9 (µM), S9 metabolic activation: without S9, exposure time: 24 hours | 0.74 | 1.48 | 93
concentration: 52.4 (µM), S9 metabolic activation: with S9, exposure time: 3-4 hours | 0.22 | 1.36 | 92.9
concentration: 52.4 (µM), S9 metabolic activation: without S9, exposure time: 24 hours | 0.78 | 1.48 | 73.2
concentration: 65.5 (µM), S9 metabolic activation: with S9, exposure time: 3-4 hours | 0.4 | 1.54 | 126
concentration: 65.5 (µM), S9 metabolic activation: without S9, exposure time: 24 hours | 0.92 | 1.5 | 76.7
concentration: 81.9 (µM), S9 metabolic activation: with S9, exposure time: 3-4 hours | 0.32 | 1.78 | 114
concentration: 81.9 (µM), S9 metabolic activation: without S9, exposure time: 24 hours | 0.98 | 1.88 | 79.6
concentration: 102 (µM), S9 metabolic activation: with S9, exposure time: 3-4 hours | 0.36 | 1 | 111
concentration: 102 (µM), S9 metabolic activation: without S9, exposure time: 24 hours | 1.18 | 1.68 | 92.1
concentration: 128 (µM), S9 metabolic activation: with S9, exposure time: 3-4 hours | 0.24 | 1.44 | 121
concentration: 128 (µM), S9 metabolic activation: without S9, exposure time: 24 hours | 1.56 | 1.96 | 85.8
concentration: 160 (µM), S9 metabolic activation: with S9, exposure time: 3-4 hours | 0.26 | 1.5 | 129
concentration: 160 (µM), S9 metabolic activation: without S9, exposure time: 24 hours | 1.38 | 2.4 | 100
concentration: 200 (µM), S9 metabolic activation: with S9, exposure time: 3-4 hours | 0.36 | 1.34 | 125
concentration: 200 (µM), S9 metabolic activation: without S9, exposure time: 24 hours | 1.92 | 2.64 | 89.9

CN(Cc1cnc2nc(N)nc(N)c2n1)c1ccc(C(=O)N[C@@H](CCC(=O)O)C(=O)O)cc1 [Methotrexate]
Conditions | hypodiploid nuclei frequency, CHO-K1 [1] [%] | micronucleus frequency, CHO-K1 [2] [%] | relative survival, CHO-K1 [3]
concentration: 4.5 (µM), S9 metabolic activation: with S9, exposure time: 3-4 hours | 0.24 | 2.18 | 86.4
concentration: 4.5 (µM), S9 metabolic activation: without S9, exposure time: 24 hours | 0.68 | 1.48 | 82.6
concentration: 5.63 (µM), S9 metabolic activation: with S9, exposure time: 3-4 hours | 0.48 | 2.48 | 90
concentration: 5.63 (µM), S9 metabolic activation: without S9, exposure time: 24 hours | 0.59 | 1.72 | 83.5
concentration: 7.04 (µM), S9 metabolic activation: with S9, exposure time: 3-4 hours | 0.24 | 2.42 | 83.9
concentration: 7.04 (µM), S9 metabolic activation: without S9, exposure time: 24 hours | 0.73 | 1.75 | 81.5
concentration: 8.8 (µM), S9 metabolic activation: with S9, exposure time: 3-4 hours | 0.34 | 2.18 | 102
concentration: 8.8 (µM), S9 metabolic activation: without S9, exposure time: 24 hours | 0.79 | 2.03 | 91.3
concentration: 11 (µM), S9 metabolic activation: with S9, exposure time: 3-4 hours | 0.42 | 2.7 | 96.9
concentration: 11 (µM), S9 metabolic activation: without S9, exposure time: 24 hours | 0.87 | 1.54 | 86.8
concentration: 13.7 (µM), S9 metabolic activation: with S9, exposure time: 3-4 hours | 0.26 | 1.94 | 77.9
concentration: 13.7 (µM), S9 metabolic activation: without S9, exposure time: 24 hours | 1.06 | 1.79 | 90.7
concentration: 17.2 (µM), S9 metabolic activation: with S9, exposure time: 3-4 hours | 0.34 | 1.9 | 74.1
concentration: 17.2 (µM), S9 metabolic activation: without S9, exposure time: 24 hours | 5.77 | 2.54 | 78.8
concentration: 21.5 (µM), S9 metabolic activation: with S9, exposure time: 3-4 hours | 0.4 | 2.22 | 92.2
concentration: 21.5 (µM), S9 metabolic activation: without S9, exposure time: 24 hours | – | – | 64.6
concentration: 26.8 (µM), S9 metabolic activation: with S9, exposure time: 3-4 hours | 0.2 | 1.58 | 106
concentration: 26.8 (µM), S9 metabolic activation: without S9, exposure time: 24 hours | 0.7 | 1.78 | 87.7
concentration: 33.6 (µM), S9 metabolic activation: with S9, exposure time: 3-4 hours | 0.24 | 1.62 | 97.8
concentration: 33.6 (µM), S9 metabolic activation: without S9, exposure time: 24 hours | 1.01 | 1.82 | 93.7
concentration: 41.9 (µM), S9 metabolic activation: with S9, exposure time: 3-4 hours | 0.38 | 1.66 | 98.9
concentration: 41.9 (µM), S9 metabolic activation: without S9, exposure time: 24 hours | 0.89 | 2.25 | 85.5
concentration: 52.4 (µM), S9 metabolic activation: with S9, exposure time: 3-4 hours | 0.3 | 1.98 | 106
concentration: 52.4 (µM), S9 metabolic activation: without S9, exposure time: 24 hours | 0.75 | 1.85 | 76.1
concentration: 65.5 (µM), S9 metabolic activation: with S9, exposure time: 3-4 hours | 0.24 | 1.18 | 93.5
concentration: 65.5 (µM), S9 metabolic activation: without S9, exposure time: 24 hours | 0.81 | 1.88 | 83.4
concentration: 81.9 (µM), S9 metabolic activation: with S9, exposure time: 3-4 hours | 0.32 | 1.46 | 86.4
concentration: 81.9 (µM), S9 metabolic activation: without S9, exposure time: 24 hours | 0.77 | 1.84 | 87.5
concentration: 102 (µM), S9 metabolic activation: with S9, exposure time: 3-4 hours | 0.24 | 2.66 | 90.8
concentration: 102 (µM), S9 metabolic activation: without S9, exposure time: 24 hours | 1.16 | 1.88 | 78.6
concentration: 128 (µM), S9 metabolic activation: with S9, exposure time: 3-4 hours | 0.32 | 1.98 | 75.7
concentration: 128 (µM), S9 metabolic activation: without S9, exposure time: 24 hours | 1.37 | 2.12 | 84.5
concentration: 160 (µM), S9 metabolic activation: with S9, exposure time: 3-4 hours | 0.36 | 2.1 | 95.6
concentration: 160 (µM), S9 metabolic activation: without S9, exposure time: 24 hours | 1.76 | 2.4 | 80.9
concentration: 200 (µM), S9 metabolic activation: with S9, exposure time: 3-4 hours | 0.3 | 2.24 | 74.1
concentration: 200 (µM), S9 metabolic activation: without S9, exposure time: 24 hours | 2.05 | 2.39 | 76.1
